Experiment [1] concerns the target T1, Myc-tagged RhoGDIα expressed in HEK293T cells (not stated (human or mouse cDNA cloned)) (UniProt P52565).
T1 sequence: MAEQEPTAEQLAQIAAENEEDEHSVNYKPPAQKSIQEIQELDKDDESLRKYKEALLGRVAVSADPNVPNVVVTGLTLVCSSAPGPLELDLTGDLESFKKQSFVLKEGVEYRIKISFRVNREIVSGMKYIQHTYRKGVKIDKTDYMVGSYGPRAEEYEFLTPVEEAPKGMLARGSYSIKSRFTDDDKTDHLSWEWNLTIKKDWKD
The experiment can be described thus: co-IP; HEK293T cells expressing Myc-RhoGDIα alone or with Flag-tagged wild-type or mutant human FRMD7, 48 h; Myc-RhoGDIα precipitated with anti-Myc antibody bound to protein A/G-Sepharose; blots for Rac1, Cdc42, RhoA and Flag.

In experiment [2] the target is T2, Myc-tagged mouse RhoGDIα (mouse) (UniProt Q99PT1).
T2 sequence: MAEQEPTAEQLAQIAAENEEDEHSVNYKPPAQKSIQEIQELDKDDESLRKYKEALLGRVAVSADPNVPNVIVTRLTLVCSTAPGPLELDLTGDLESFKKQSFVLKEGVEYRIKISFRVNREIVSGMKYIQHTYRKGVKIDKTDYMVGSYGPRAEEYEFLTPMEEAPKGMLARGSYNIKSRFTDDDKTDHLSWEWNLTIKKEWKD
As to the kind of experiment: co-IP; Neuro-2a cells expressing Myc-RhoGDIα with or without Flag-full-length FRMD7; Myc-RhoGDIα precipitated with 3 µg anti-Myc antibody bound to protein A/G-Sepharose; blots for Rac1, Cdc42, RhoA and Flag.

The target of experiment [3] is T2, Myc-tagged mouse RhoGDIα (mouse). The experiment can be described thus: co-IP; reciprocal co-IP from Neuro-2a cells co-transfected with Flag-FRMD7 and Myc-RhoGDIα, 48 h; lysis buffer 50mM Tris pH 7.4, 150mM NaCl, 1% NP-40, 0.25% sodium deoxycholate; anti-Flag or anti-Myc antibody overnight at 4° C, protein A/G Sepharose; normal mouse IgG as negative control.
The target in experiment [4] is T3, GST-RhoGDIα (wild-type mouse RhoGDIα, GST fusion) (mouse) (UniProt Q99PT1).
T3 sequence: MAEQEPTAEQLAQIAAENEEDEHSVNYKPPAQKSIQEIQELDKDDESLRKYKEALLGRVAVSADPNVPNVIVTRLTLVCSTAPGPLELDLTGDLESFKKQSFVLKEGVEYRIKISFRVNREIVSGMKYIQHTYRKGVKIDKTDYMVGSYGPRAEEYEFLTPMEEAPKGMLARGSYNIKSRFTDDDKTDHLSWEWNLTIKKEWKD
As to the kind of experiment: pull-down; in vitro GST pull-down with highly purified GST-RhoGDIα; FRMD7 full length and truncates from eukaryotic expression; only the target purified.

Experiment [5] deals with T4, Flag-tagged mouse full length FRMD7 (mouse) (UniProt A2AD83).
T4 sequence: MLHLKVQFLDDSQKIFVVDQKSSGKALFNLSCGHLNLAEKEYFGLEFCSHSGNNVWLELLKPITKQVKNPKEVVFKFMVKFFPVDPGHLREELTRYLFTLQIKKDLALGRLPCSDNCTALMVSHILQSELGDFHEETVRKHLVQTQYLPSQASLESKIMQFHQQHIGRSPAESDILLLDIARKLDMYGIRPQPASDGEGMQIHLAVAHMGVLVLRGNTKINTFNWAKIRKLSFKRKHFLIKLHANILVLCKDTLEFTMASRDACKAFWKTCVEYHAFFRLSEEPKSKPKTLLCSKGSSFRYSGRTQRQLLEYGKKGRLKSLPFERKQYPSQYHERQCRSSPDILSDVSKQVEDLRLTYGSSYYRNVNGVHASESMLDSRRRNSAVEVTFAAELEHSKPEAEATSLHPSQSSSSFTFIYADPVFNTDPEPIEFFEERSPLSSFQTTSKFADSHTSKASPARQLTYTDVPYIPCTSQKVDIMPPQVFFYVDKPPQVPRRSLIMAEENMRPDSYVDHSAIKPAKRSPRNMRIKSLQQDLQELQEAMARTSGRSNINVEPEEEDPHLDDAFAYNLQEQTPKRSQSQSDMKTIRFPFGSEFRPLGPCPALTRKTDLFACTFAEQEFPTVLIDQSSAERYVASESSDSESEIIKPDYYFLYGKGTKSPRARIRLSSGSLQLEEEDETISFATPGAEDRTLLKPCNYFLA
As to the kind of experiment: co-IP; reciprocal co-IP from Neuro-2a cells co-transfected with Flag-FRMD7 and Myc-RhoGDIα, 48 h; lysis buffer 50mM Tris pH 7.4, 150mM NaCl, 1% NP-40, 0.25% sodium deoxycholate; anti-Flag or anti-Myc antibody overnight at 4° C, protein A/G Sepharose; normal mouse IgG as negative control.

Results are given in words; binding and its absence hold for the method and conditions named. Binding seen in cells or lysates may run through a third protein. Some entries that bind do so weakly or less than the wild type. Sequences can lack the tags named with a protein.

B1: Flag-tagged human FRMD7 truncated mutant c.1003C>T (p.R335X) (domain or fragment, UniProt Q6ZUT3-1 1-334)
chain: MLHLKVQFLDDSQKIFVVDQKSSGKALFNLSCSHLNLAEKEYFGLEFCSHSGNNVWLELLKPITKQVKNPKEIVFKFMVKFFPVDPGHLREELTRYLFTLQIKKDLALGRLPCSDNCTALMVSHILQSELGDFHEETDRKHLAQTRYLPNQDCLEGKIMHFHQKHIGRSPAESDILLLDIARKLDMYGIRPHPASDGEGMQIHLAVAHMGVLVLRGNTKINTFNWAKIRKLSFKRKHFLIKLHANILVLCKDTLEFTMASRDACKAFWKTCVEYHAFFRLSEEPKSKPKTLLCSKGSSFRYSGRTQRQLLEYGRKGRLKSLPFERKHYPSQYHE
As for B1, the binding result in experiment [1] is on record as “binds weakly”.

B2: Flag-tagged mouse full length FRMD7 (protein, UniProt A2AD83 1-703)
chain: MLHLKVQFLDDSQKIFVVDQKSSGKALFNLSCGHLNLAEKEYFGLEFCSHSGNNVWLELLKPITKQVKNPKEVVFKFMVKFFPVDPGHLREELTRYLFTLQIKKDLALGRLPCSDNCTALMVSHILQSELGDFHEETVRKHLVQTQYLPSQASLESKIMQFHQQHIGRSPAESDILLLDIARKLDMYGIRPQPASDGEGMQIHLAVAHMGVLVLRGNTKINTFNWAKIRKLSFKRKHFLIKLHANILVLCKDTLEFTMASRDACKAFWKTCVEYHAFFRLSEEPKSKPKTLLCSKGSSFRYSGRTQRQLLEYGKKGRLKSLPFERKQYPSQYHERQCRSSPDILSDVSKQVEDLRLTYGSSYYRNVNGVHASESMLDSRRRNSAVEVTFAAELEHSKPEAEATSLHPSQSSSSFTFIYADPVFNTDPEPIEFFEERSPLSSFQTTSKFADSHTSKASPARQLTYTDVPYIPCTSQKVDIMPPQVFFYVDKPPQVPRRSLIMAEENMRPDSYVDHSAIKPAKRSPRNMRIKSLQQDLQELQEAMARTSGRSNINVEPEEEDPHLDDAFAYNLQEQTPKRSQSQSDMKTIRFPFGSEFRPLGPCPALTRKTDLFACTFAEQEFPTVLIDQSSAERYVASESSDSESEIIKPDYYFLYGKGTKSPRARIRLSSGSLQLEEEDETISFATPGAEDRTLLKPCNYFLA
B2: the binding result in experiment [2], in experiment [3] and in experiment [4] was “binds” in each case.

B3: Nr-ferm FRMD7 (aa 1-279; the N-terminal FERM domain of mouse FRMD7) (domain or fragment, UniProt A2AD83 1-279)
chain: MLHLKVQFLDDSQKIFVVDQKSSGKALFNLSCGHLNLAEKEYFGLEFCSHSGNNVWLELLKPITKQVKNPKEVVFKFMVKFFPVDPGHLREELTRYLFTLQIKKDLALGRLPCSDNCTALMVSHILQSELGDFHEETVRKHLVQTQYLPSQASLESKIMQFHQQHIGRSPAESDILLLDIARKLDMYGIRPQPASDGEGMQIHLAVAHMGVLVLRGNTKINTFNWAKIRKLSFKRKHFLIKLHANILVLCKDTLEFTMASRDACKAFWKTCVEYHAFFR
As for B3, in experiment [4], the binding result was “no binding”.

B4: Flag-tagged human FRMD7 mutant c.781C>G (p.R261G) (protein, UniProt Q6ZUT3-1 1-714)
chain: MLHLKVQFLDDSQKIFVVDQKSSGKALFNLSCSHLNLAEKEYFGLEFCSHSGNNVWLELLKPITKQVKNPKEIVFKFMVKFFPVDPGHLREELTRYLFTLQIKKDLALGRLPCSDNCTALMVSHILQSELGDFHEETDRKHLAQTRYLPNQDCLEGKIMHFHQKHIGRSPAESDILLLDIARKLDMYGIRPHPASDGEGMQIHLAVAHMGVLVLRGNTKINTFNWAKIRKLSFKRKHFLIKLHANILVLCKDTLEFTMASGDACKAFWKTCVEYHAFFRLSEEPKSKPKTLLCSKGSSFRYSGRTQRQLLEYGRKGRLKSLPFERKHYPSQYHERQCRSSPDLLSDVSKQVEDLRLAYGGGYYQNVNGVHASEPVLESRRRNSALEVTFATELEHSKPEADPTLLHQSQSSSSFPFIYMDPVFNTEPNPNPDPRDIFSERSSLSSFQTSCKFSGNHMSIYSGLTSKVRPAKQLTYTDVPYIPCTGQQVGIMPPQVFFYVDKPPQVPRWSPIRAEERTSPHSYVEPTAMKPAERSPRNIRMKSFQQDLQVLQEAIARTSGRSNINVGLEEEDPNLEDAFVCNIQEQTPKRSQSQSDMKTIRFPFGSEFRPLGPCPALSHKADLFTDMFAEQELPAVLMDQSTAERYVASESSDSESEILKPDYYALYGKEIRSPMARIRLSSGSLQLDEEDEDAYFNTPTAEDRTSLKPCNYFLA
For B4, in experiment [1], the binding result is “binds”.

B5: Flag-tagged human FRMD7 mutant c.886G>C (p.G296R) (protein, UniProt Q6ZUT3-1 1-714)
chain: MLHLKVQFLDDSQKIFVVDQKSSGKALFNLSCSHLNLAEKEYFGLEFCSHSGNNVWLELLKPITKQVKNPKEIVFKFMVKFFPVDPGHLREELTRYLFTLQIKKDLALGRLPCSDNCTALMVSHILQSELGDFHEETDRKHLAQTRYLPNQDCLEGKIMHFHQKHIGRSPAESDILLLDIARKLDMYGIRPHPASDGEGMQIHLAVAHMGVLVLRGNTKINTFNWAKIRKLSFKRKHFLIKLHANILVLCKDTLEFTMASRDACKAFWKTCVEYHAFFRLSEEPKSKPKTLLCSKRSSFRYSGRTQRQLLEYGRKGRLKSLPFERKHYPSQYHERQCRSSPDLLSDVSKQVEDLRLAYGGGYYQNVNGVHASEPVLESRRRNSALEVTFATELEHSKPEADPTLLHQSQSSSSFPFIYMDPVFNTEPNPNPDPRDIFSERSSLSSFQTSCKFSGNHMSIYSGLTSKVRPAKQLTYTDVPYIPCTGQQVGIMPPQVFFYVDKPPQVPRWSPIRAEERTSPHSYVEPTAMKPAERSPRNIRMKSFQQDLQVLQEAIARTSGRSNINVGLEEEDPNLEDAFVCNIQEQTPKRSQSQSDMKTIRFPFGSEFRPLGPCPALSHKADLFTDMFAEQELPAVLMDQSTAERYVASESSDSESEILKPDYYALYGKEIRSPMARIRLSSGSLQLDEEDEDAYFNTPTAEDRTSLKPCNYFLA
Take B5: the binding result in experiment [1] is “binds”.

B6: Flag-tagged wild-type human FRMD7 (protein, UniProt Q6ZUT3-1 1-714)
chain: MLHLKVQFLDDSQKIFVVDQKSSGKALFNLSCSHLNLAEKEYFGLEFCSHSGNNVWLELLKPITKQVKNPKEIVFKFMVKFFPVDPGHLREELTRYLFTLQIKKDLALGRLPCSDNCTALMVSHILQSELGDFHEETDRKHLAQTRYLPNQDCLEGKIMHFHQKHIGRSPAESDILLLDIARKLDMYGIRPHPASDGEGMQIHLAVAHMGVLVLRGNTKINTFNWAKIRKLSFKRKHFLIKLHANILVLCKDTLEFTMASRDACKAFWKTCVEYHAFFRLSEEPKSKPKTLLCSKGSSFRYSGRTQRQLLEYGRKGRLKSLPFERKHYPSQYHERQCRSSPDLLSDVSKQVEDLRLAYGGGYYQNVNGVHASEPVLESRRRNSALEVTFATELEHSKPEADPTLLHQSQSSSSFPFIYMDPVFNTEPNPNPDPRDIFSERSSLSSFQTSCKFSGNHMSIYSGLTSKVRPAKQLTYTDVPYIPCTGQQVGIMPPQVFFYVDKPPQVPRWSPIRAEERTSPHSYVEPTAMKPAERSPRNIRMKSFQQDLQVLQEAIARTSGRSNINVGLEEEDPNLEDAFVCNIQEQTPKRSQSQSDMKTIRFPFGSEFRPLGPCPALSHKADLFTDMFAEQELPAVLMDQSTAERYVASESSDSESEILKPDYYALYGKEIRSPMARIRLSSGSLQLDEEDEDAYFNTPTAEDRTSLKPCNYFLA
With B6, in experiment [1], the binding entry was “binds”.

B7: Myc-tagged mouse RhoGDIα (protein, UniProt Q99PT1 1-204)
chain: MAEQEPTAEQLAQIAAENEEDEHSVNYKPPAQKSIQEIQELDKDDESLRKYKEALLGRVAVSADPNVPNVIVTRLTLVCSTAPGPLELDLTGDLESFKKQSFVLKEGVEYRIKISFRVNREIVSGMKYIQHTYRKGVKIDKTDYMVGSYGPRAEEYEFLTPMEEAPKGMLARGSYNIKSRFTDDDKTDHLSWEWNLTIKKEWKD
Regarding B7, the binding entry in experiment [5] was “binds”.

B8: Cr-fragment FRMD7 (aa 280-703; FRMD7 lacking the FERM domain) (domain or fragment, UniProt A2AD83 280-703)
chain: LSEEPKSKPKTLLCSKGSSFRYSGRTQRQLLEYGKKGRLKSLPFERKQYPSQYHERQCRSSPDILSDVSKQVEDLRLTYGSSYYRNVNGVHASESMLDSRRRNSAVEVTFAAELEHSKPEAEATSLHPSQSSSSFTFIYADPVFNTDPEPIEFFEERSPLSSFQTTSKFADSHTSKASPARQLTYTDVPYIPCTSQKVDIMPPQVFFYVDKPPQVPRRSLIMAEENMRPDSYVDHSAIKPAKRSPRNMRIKSLQQDLQELQEAMARTSGRSNINVEPEEEDPHLDDAFAYNLQEQTPKRSQSQSDMKTIRFPFGSEFRPLGPCPALTRKTDLFACTFAEQEFPTVLIDQSSAERYVASESSDSESEIIKPDYYFLYGKGTKSPRARIRLSSGSLQLEEEDETISFATPGAEDRTLLKPCNYFLA
Regarding B8, in experiment [4], the binding result is recorded as “no binding”.

Source of the values: paper PMC3742540.
